From the supplement of paper PMC11417369
± gives the standard deviation of the averaged measurements. Some of the results follow.

These sequences were tested on PfAP2-EXP AP2 domain (GST-tagged) (assay: gcPBM binding intensity (ln(normalized median fluorescence intensity)); higher = stronger DNA binding).
Outline: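 GST-tagged P. falciparum DNA-binding domains, expressed in E. coli (about 25 μg on average), were applied for 1 h to an Agilent 4 × 180k array of primer-extended double-stranded 36-bp intergenic genomic probes plus negative controls. The binding buffer was 1× PBS with 1% milk, 0.2 mg/ml BSA, 0.5% salmon testes DNA and 0.03% Triton X-100. Bound protein was detected with Alexa488 anti-GST antibody and scanned at 488 nm. Binding intensity is the highest Masliner-normalised natural-log median intensity across replicate spots of either probe orientation.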

| Sequence | gcPBM binding intensity (ln) |
| --- | --- |
| GTATATTGTACCATCACACATGTAAAACATAGATGT [CACACA_site5359] | 8.51 ± 0.26 |
| TCCTTAAAAAAACCTTAACACACATAAACTATAATT [CACACA_site9001] | 8.4 ± 0.45 |
| TTTTTTTTTAAGTTTGCACACATGGAAGACAAAAAT [CACACA_site2505] | 8.9 ± 0.37 |
| TAATACATAAATAATGTGCACATGGAAATATATCTT | 9.04 ± 0.28 |
| AAAAAAAAAAAAAAATCACACACAATATGAATTTAT [CACACA_site8100] | 8.28 ± 0.38 |
| TATTTTATATACAGTGGTACTTTTTTTTTTTTTTTT [XGTACX_site2475] | 8.44 ± 0.29 |
| AATTGCTTCAAAATTAAACACACACTAATAAAAAAA [CACACA_site8855] | 8.56 ± 0.49 |
| AAAAAAAAAAAAAAAACACACATTTGAAGAAAAAAA [CACACA_site7389] | 8.57 ± 0.26 |
| ACATATATATTATAAGCATGCATGAGAAAATTTTTA [TGCATGCA_site1054] | 9.4 ± 0.33 |
| TAGAAACTATGTAATGCACACCAAAATAAAATTATT [CACACA_site8578] | 8.56 ± 0.41 |
| TTTTAAAAAATAAAATATTATTGAAGTAAAATATGA [CACACA_negctrl_site758] | 8.37 ± 0.39 |
| TTTTGGATACTTCATTTGTCCTGTTTTTTTTTTTTA [CACACA_negctrl_site399] | 8.63 ± 0.55 |
| AAAATATATCAAAACACACTCACATATAATACTTAC [CACACA_site6031] | 8.57 ± 0.26 |
| TATATACTTATATACTGTACTCATCATCTTTTAAAG [XGTACX_site6099] | 8.55 ± 0.43 |
| TAATATATCTATAATACACACTATTCTAATCACATA [CACACA_site6731] | 8.29 ± 0.32 |
| TTTTTTTTTTTTTAAACATGCAAAATATATAATTTT [TGCATGCA_site633] | 8.46 ± 0.36 |
| ATAATAAACATATATGTACACACATATACATATATA [CACACA_site8924] | 8.47 ± 0.21 |
| AACACACACATATATATATATATATATATATATATA [GTGCAC_negctrl_site573] | 10 ± 0.47 |
| TTTTTAATATTGTATGCATGTCGTAATAAAAAATTT [TGCATGCA_site259] | 8.71 ± 0.23 |
| ATATACTATTAACCACATATGTGTGTTAATTTATAT [GTGCAC_negctrl_site315] | 8.53 ± 0.27 |
| ATATTAATTATAACTTGTACGTAAAAGGAAAACAAT [XGTACX_site3269] | 9.1 ± 0.41 |
| TGCTATTTCATATTCTGTACTAAAACAAGATAATAA [XGTACX_site3852] | 8.56 ± 0.3 |

| Sequence | gcPBM binding intensity (ln) |
| --- | --- |
| TTGAACCCCACTAACACACACACGCACGCTCAGAAA [CACACA_site2983] | 8.57 ± 0.51 |
| ATATATATATATAGAAGTACTCTTATATATTTTATA [XGTACX_site1384] | 10 ± 0.63 |
| AAAAAAAAAAAAAATACACACACATAAAAAAAAAAA [CACACA_site8555] | 8.47 ± 0.52 |
| GATATGGAATATATGTGTACATATATATATATTATA [XGTACX_site1724] | 8.39 ± 0.26 |
| CAAATTTTTAAAAATGCATGTTCATCCATCCCATAT [TGCATGCA_site467] | 8.8 ± 0.52 |
| TTTGTATGATCATAAAGTACTAATTTACATTCAGCA [XGTACX_site8596] | 8.41 ± 0.44 |
| AATTATATACCATGCACACAAATATTCATACAGGAA [CACACA_site4057] | 8.63 ± 0.47 |
| ATATATGAAAATATATGTACACAACATATAAAATAG [XGTACX_site5132] | 8.73 ± 0.27 |
| TTTTCATTCTTATATAAATATTATTTTATATAAAAT [GTGCAC_negctrl_site674] | 8.26 ± 0.3 |
| AAAAATATATATATATTTCTTCTTTGTTAAAATGTA [CACACA_negctrl_site1459] | 8.31 ± 0.44 |
| GTAGAATCAGTATTCACACATAAATGTATCCAAATG [CACACA_site5395] | 8.55 ± 0.4 |
| GGGAATATATTCAATTGTACATTCTTATTTTATCCA [XGTACX_site8480] | 8.81 ± 0.43 |
| ACGCACGAAATAAATACATGCATATTGTAAAAATTA [TGCATGCA_site310] | 8.6 ± 0.21 |
| TCTTTTTTTTTACATACTTTTTTCCTTTTTTTTTTA [CACACA_negctrl_site1429] | 8.63 ± 0.49 |
| TATTTAATGCAAAAACGTACATAAATAACATTCACA [XGTACX_site5356] | 8.57 ± 0.4 |
| TATAAACACCCATATAAACACACATACATACATACA [CACACA_site8791] | 9.27 ± 0.27 |
| TATATATATATTAGTGGTACAAGATTTTTTTCTTTT [XGTACX_site4619] | 9.8 ± 0.085 |
| TTTTTTCATAAATAATGTACATATATATATATATAT [XGTACX_site3620] | 10.1 ± 0.28 |
| CTAGACTTTTTACAATGTACATATTTATGTATTATT [XGTACX_site1833] | 8.62 ± 0.25 |
| TCTTGTAGATATATTTGTACATATATTTATGGGTAT [XGTACX_site1139] | 8.69 ± 0.35 |
| AAAATTTTTTACTTTACACACATTTTGTATATTTTG [CACACA_site1730] | 8.89 ± 0.28 |
| AAAAAATATATATTAACACACACACTAATAAAAAAA [CACACA_site8366] | 8.65 ± 0.54 |
